Source: PubChem BioAssay AID588795 (National Center for Advancing Translational Sciences (NCATS), 2011)
Screen size: about 390,000 compounds; about 1,400 (0.36%) were called active. The inconclusive results got no clear call from the source; some entries with a clear call stand among them for comparison. The call rests on the fitted dose curve; in most records, active means well fitted inhibition curve with a large enough effect; inconclusive means small, poorly fitted or top-dose-only effect; inactive means no such curve, though single readings can be large or run the other way. Potencies of inconclusive entries are doubtful fits and often do not repeat.

Target: Flap endonuclease 1 (Homo sapiens) (UniProt P39748)
Chain of UniProt P39748 (P39748 whole entry, looked up): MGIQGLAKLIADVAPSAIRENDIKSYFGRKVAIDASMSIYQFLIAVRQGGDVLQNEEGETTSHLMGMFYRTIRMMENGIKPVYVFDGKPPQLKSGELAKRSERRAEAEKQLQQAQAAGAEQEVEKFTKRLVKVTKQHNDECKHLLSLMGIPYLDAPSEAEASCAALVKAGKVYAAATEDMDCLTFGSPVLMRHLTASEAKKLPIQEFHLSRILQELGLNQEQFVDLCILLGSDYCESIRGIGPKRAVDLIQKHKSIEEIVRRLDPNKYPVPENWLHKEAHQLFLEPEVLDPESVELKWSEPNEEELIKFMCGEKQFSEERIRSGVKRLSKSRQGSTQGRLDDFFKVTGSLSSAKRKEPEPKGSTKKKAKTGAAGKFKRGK
Experiment: qHTS Assay for the Inhibitors of Human Flap endonuclease 1 (FEN1). Further: nearly all actives have a fitted effect of over 65% in size.
Details: Recombinant FEN1 flap cleavage, fluorescence, 15 min; series mostly up to 114 µM
Procedure, shortened: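 Recombinant FEN1 (10 nM) was preincubated with pin-transferred compounds for 15 min at room temperature, then flap DNA substrate (50 nM final) was added. Plates were read at 0 and 15 min, and normalized concentration–response data were fitted to a four-parameter Hill equation.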
Potency means the concentration at half of the fitted maximal effect; tags describe the fitted curve by direction and shape.

Structure (SMILES)	Potency
COc1ccc(/C=C2\SC(=S)N(CCC(=O)Nc3cccc(C(=O)O)c3)C2=O)cc1OC	inconclusive: 56.2 µM [inhibitor, partial curve, poor fit]
O=C(COC(=O)c1c2c(nc3ccccc13)/C(=C\c1ccco1)CC2)NC1CCCC1	inconclusive: 50.1 µM [inhibitor, partial curve]
O=C(O)c1cc(N(Cc2ccccc2O)Cc2ccccc2O)ccc1O	inconclusive: 22.4 µM [inhibitor, full curve]
COc1ccc(NC(=O)C2=CC(c3ccc(C)cc3)=NS(=O)(=O)N2C)cc1	inconclusive: 50.1 µM [inhibitor, partial curve, poor fit]
O=C(O)CSc1nc2ccc(NC(=O)COc3ccc(Cl)cc3)cc2s1	inactive
O=C(CCN1C(=O)/C(=C\c2ccccc2)SC1=S)Nc1ccc(C(=O)O)cc1	inactive
COc1ccc(/C=C/c2ccc3ccccc3n2)c(OC)c1	inconclusive: 39.8 µM [inhibitor, partial curve, poor fit]
Cn1c(=O)c(Oc2ccc(Cl)cc2)c(O)c2ccccc21	inconclusive: 20 µM [inhibitor, partial curve, poor fit]
COc1ccc(C)cc1S(=O)(=O)Nc1ccncc1	inactive
Cc1ccc(C)c(CSc2nnc(C)n3c2cc2sccc23)c1	inconclusive: 22.4 µM [inhibitor, partial curve, poor fit]
CCOC(=O)c1cnn(-c2nc3c(C)cccc3s2)c1C(F)(F)F	inconclusive: 79.4 µM [inhibitor, partial curve, poor fit]
CSc1ccc(NC(=O)CSc2nc3[nH]c(=O)cc(O)c3s2)cc1	inconclusive: 12.6 µM [inhibitor, full curve]
COCCn1c(-c2ccc(OC(F)(F)C(F)C(F)(F)F)cc2)nc2c1c(=O)[nH]c(=O)n2CC(C)C (stereo not given)	inconclusive: 35.5 µM [inhibitor, partial curve, poor fit]
O=C(O)C1=NN(c2cc(Cl)c(S(=O)(=O)O)cc2Cl)C(=O)C1	inconclusive: 50.1 µM [inhibitor, partial curve, poor fit]
Cc1cc(NCCCCCCCNc2cc(C)nc3cc([N+](=O)[O-])ccc23)c2ccc([N+](=O)[O-])cc2n1	active: 44.7 µM
CCOc1ccccc1NC(=O)C(=O)/C=C(\O)c1cc(OC)ccc1OC	inconclusive: 31.6 µM [inhibitor, partial curve, poor fit]
O=C(CCN1CCOCC1)N1CCCC(Nc2ccc(F)cc2)C1 (stereo not given)	inactive
COC(=O)c1ccc(COc2ccc(C(C)(C)C)cc2)o1	inconclusive: 35.5 µM [inhibitor, partial curve, poor fit]
O=C(C[n+]1cccc2cccc(O)c21)c1ccc(Cl)cc1	inactive
Cc1ccc(N2C(=O)c3oc4ccccc4c(=O)c3C2c2cccc(O)c2)nc1 (stereo not given)	inconclusive: 70.8 µM [inhibitor, partial curve, poor fit]

Structure (SMILES)	Potency
Cc1ccc(OCC(=O)Nc2cc(NC(=O)COc3ccc(C)c(C)c3)cc(C(=O)O)c2)cc1C	inconclusive: 44.7 µM [inhibitor, partial curve]
CSc1nsc2nc(=O)c(/C=C3\C=Nc4ccccc43)c(N)n12	inconclusive: 89.1 µM [inhibitor, single point]
CCCN(Cc1cc2cc(C)ccc2[nH]c1=O)C(=O)c1ccccn1	inactive
C#Cc1ccc([C@H]2C=C(C(=O)OCC=C)O[C@@H](OCC)[C@@H]2CCCO)cc1	inactive
COc1ccc2c(CC(=O)OCC(=O)Nc3cccc(C)c3)coc2c1	inconclusive: 79.4 µM [inhibitor, partial curve, poor fit]
O=C(c1ccc(Cl)cc1)c1oc2ccccc2c1CS(=O)c1ccccc1 (stereo not given)	inconclusive: 89.1 µM [inhibitor, partial curve, poor fit]
CCn1c(SCC(=O)N2CCCc3ccccc32)nc2c1c(=O)n(C)c(=O)n2C	inconclusive: 89.1 µM [inhibitor, partial curve, poor fit]
COc1cc(OC)c(NS(=O)(=O)c2ccc3c(c2)CCCN3C(C)=O)cc1Cl	inactive
Cc1cc[n+](C)c2ccccc12	inconclusive: 89.1 µM [inhibitor, partial curve, poor fit]
Cc1c(C(=O)N2CCN(c3ccccc3)CC2)sc2nc3n(c(=O)c12)CCC3	inactive
Oc1ccc(Nc2nc(-c3ccccc3O)nc3ccccc23)cc1	inconclusive: 39.8 µM [inhibitor, full curve, poor fit]
CCN(CC)CCNC(=O)c1ccc2c(=O)n3nc(Nc4ccccc4OC)sc3nc2c1	inconclusive: 44.7 µM [inhibitor, partial curve, poor fit]
CN1CCc2c(sc3c2C(=O)NC(c2cn(Cc4ccccc4)c4ccccc24)N3)C1 (stereo not given)	inconclusive: 89.1 µM [inhibitor, single point]
Cc1cc2oc(C(=O)Nc3ccc(S(=O)(=O)Nc4onc(C)c4C)cc3)cc(=O)c2cc1Cl	inconclusive: 39.8 µM [inhibitor, full curve]
CCCn1nc(NC(=O)c2ccco2)c2cc3ccccc3nc21	inconclusive: 8.91 µM [inhibitor, partial curve, poor fit]
COc1ccc(Nc2nc(N)c3cc(OC)c(OC)cc3n2)cc1	inconclusive: 39.8 µM [inhibitor, partial curve]
O=c1n(Cc2ccc(Cl)cc2)c2sc3c(c2c2ncnn12)CCCC3	inconclusive: 25.1 µM [inhibitor, partial curve, poor fit]
Cc1cccc(N=C2NC(=O)/C(=C/C=C/c3ccco3)S2)c1	inconclusive: 50.1 µM [inhibitor, partial curve, poor fit]
CC(C)c1nc2sc3c(SCC(=O)NCc4ccco4)ncnc3c2c2c1CCC2	inconclusive: 56.2 µM [inhibitor, partial curve, poor fit]
CC(=O)n1c(-c2ccccc2)c(-c2ccccc2)n(C)c1=O	inactive
